# Reference: PubChem BioAssay AID1508624 (National Center for Advancing Translational Sciences (NCATS), 2021)
# In all, about 48,000 compounds went through this assay and about 120 (0.25%) were called active. Another 4% or so got no clear call; they are omitted. The call rests on the fitted dose curve; in most records, active means well fitted activation curve with a large enough effect; inconclusive means small, poorly fitted or top-dose-only effect, or another doubt; inactive means no such curve, though single readings can be large or run the other way. The list shows a part of the results.
# Experiment: Primary qHTS for Identification of Small Molecule Activators of Huntingtin-Antisense Promoter Activity; further: nearly all actives have a fitted effect of over 55% in size
# Settings: HEK293 HTT-AS promoter firefly luciferase reporter, 24 h; series mostly up to 57.5 µM; activity change, positive = activation: at the top concentration
# In short: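 HEK293 Fluc reporter, 2,500 cells/well, 24 h pre-culture; cpds up to 57.5 uM final, 24 h 37 degrees C; Dual-Glo, 10 min RT; normalized vehicle = 0%, zero RLU = -100%.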
# Potency means the concentration at half of the fitted maximal effect.
SMILES,"activity change, positive = activation",Potency
O=C(NCCn1cc(SCc2ccc(Cl)cc2)c2ccccc21)c1cccs1,inactive: -38.5%,
COc1cccc(-c2nc(SCC(=O)Nc3ccc4c(c3)OCCO4)c(-c3ccccc3)[nH]2)c1,inactive: -5.58%,
COc1cc(OC)c(N(C)C(=O)CCNC(=O)Cn2cnc3ccccc3c2=O)cc1Cl,inactive: -8.62%,
CN(C)CCNC(=O)Cn1c(=O)c2cccn2c2ccc(F)cc21,inactive: -9.14%,
Cc1ccc(C)c(CN2C(=O)c3ccccc3S(=O)(=O)c3ccc(C(=O)N4CCN(c5ccccc5)CC4)cc32)c1,inactive: -19.4%,
C#CCSc1nc2sc3c(c2c(=O)n1Cc1ccccc1)CCCC3,inactive: -33.5%,
COc1ccccc1OCCSc1nc2ccccc2n1CC(=O)N1CCOCC1,inactive: 7.28%,
COc1ccc(NC(=O)c2sc3nc(-c4ccc(OC)cc4)cc(C(F)(F)F)c3c2N)cc1,inactive: -9.54%,
Cc1ccccc1Nc1c(-c2ccco2)nc2c(C)cccn12,inactive: -10.4%,
CC1CCCCN1S(=O)(=O)c1ccc(C(=O)Nc2sc3c(c2C(N)=O)CC(C)(C)NC3(C)C)cc1 (stereo unspecified),inactive: -10%,
Cc1ccc(NC(=O)CCS(=O)(=O)c2cccc3nonc23)cc1Cl,inactive: -24.2%,
Cc1ccc(CS(=O)(=O)c2ncc(Cl)c(C(=O)Nc3nc4ccc(C)cc4s3)n2)cc1,inactive: -85.8%,
Cc1n[nH]c(C)c1S(=O)(=O)N(CC(=O)Nc1ccc(C(F)(F)F)cc1)c1ccc(C(C)C)cc1,inactive: -58.7%,
CCCOc1ccc(C(=O)Nc2ccc3nn(-c4ccc(OC)c(Cl)c4)nc3c2)cc1,inactive: 3.05%,
CCOc1ccc(-c2nnc(SCC(=O)Nc3cc(F)ccc3F)o2)cc1,inactive: -8.39%,
COCCCNC(=O)c1ccc(Cn2c(=O)c3ccccc3n(Cc3ccccc3C)c2=O)cc1,inactive: -43.1%,
COc1ccc(NC(=O)c2cnn(-c3ccc(F)cc3F)c2C2CCN(C(=O)OC(C)(C)C)CC2)cc1Cl,inactive: -26.4%,
COc1ccc(CCNC(=O)c2ccc3nc(Cc4ccccc4)oc3c2)cc1OC,inactive: -27.4%,
Nc1nonc1-c1nc2ccccc2n1Cc1c(Cl)cccc1Cl,inactive: -23.1%,
COc1ccc(N(CC(=O)NCCc2ccccc2)S(=O)(=O)c2ccc(OC)c(OC)c2)cc1,"inactive: 6.19% [at 11.5 µM, percent change from vehicle, -100% = no light]",
O=C(C1CCCN(S(=O)(=O)c2cccc3nonc23)C1)N1CCN(c2ccccc2Cl)CC1 (stereo unspecified),inactive: -36.6%,
COc1ccc(CNC(=O)c2ccc(NC(=O)N3CCSc4ncccc43)cc2)cc1OC,inactive: 1.46%,
CCOC(=O)c1c(NC(=O)CCCOc2ccc(Cl)cc2)sc2c1CCC2,inactive: -17.8%,

SMILES,"activity change, positive = activation",Potency
COc1ccc(OC)c(-c2noc(N3CCN(c4ccc(C(C)=O)cc4)CC3)n2)c1,inactive: -33.9%,
COc1ccc(-c2oc3ncn4nc(COc5ccc(C)cc5)nc4c3c2-c2ccc(OC)cc2)cc1,"inactive: 10.1% [at 11.5 µM, percent change from vehicle, -100% = no light]",
COc1ccc(Cc2ccc(NC(N)=O)cc2)cc1-c1cccc(Cl)c1,inactive: -30.7%,
CCOC(=O)Cn1c(=O)oc2cc(S(=O)(=O)N3CCN(c4ccccc4OC)CC3)ccc21,inactive: -16.6%,
O=C(NCCc1csc2nc(-c3ccccc3F)nn12)c1ccccc1C(F)(F)F,inactive: -8.59%,
COc1cccc(CN(C(=O)c2ccc(C(C)(C)C)cc2)C2CCS(=O)(=O)C2)c1 (stereo unspecified),inactive: -15.6%,
Cc1ccc(Nc2ncnc3c2cnn3-c2ccc(C)cc2)cc1,inactive: 7.38%,
CC(=O)Nc1ccc(NS(=O)(=O)c2cc(Br)cc3c2N(C(=O)C2CC2)CC3)cc1,inactive: -21.1%,
COc1ccc(OCC(=O)N(Cc2cccc(OC)c2)C2CCS(=O)(=O)C2)cc1 (stereo unspecified),inactive: -4.76%,
COc1cc(OC)c(NC(=O)c2cc(C(C)=O)n3ccccc23)cc1Cl,inactive: -41.9%,
CCOc1ccccc1NC(=O)CSc1ccc2nnc(CCNS(=O)(=O)c3ccccc3)n2n1,inactive: -13%,
COc1ccc(C)cc1NS(=O)(=O)c1c(C)nc2sc(C)cn2c1=O,inactive: -23.8%,
COCCNC(=O)CCCn1c(=O)[nH]c2ccsc2c1=O,inactive: 1.24%,
Cc1ccc(Cl)cc1N(C)C(=O)c1noc2c1CCCCC2,inactive: -19.1%,
COc1ccccc1NC(=O)C1=C(C)Nc2nc(SCC(=O)c3ccc(C)cc3)nn2C1c1ccccc1C (stereo unspecified),inactive: 2.53%,
COc1ccc(NC(=O)c2sc3nc(C)c(C(=O)Nc4ccc(C)cc4C)c(-c4ccccc4Cl)c3c2N)cc1,inactive: -20.3%,
COc1ccc(-n2cc(C(=O)N(C)c3cc(C)ccc3OC)c3ccccc3c2=O)cc1,inactive: -29.1%,
CSCCC(NS(=O)(=O)c1ccc2c(c1)oc(=O)n2C)C(=O)NCc1ccc(F)cc1 (stereo unspecified),inactive: -0.282%,
Cc1nn(Cc2noc(C(=O)NCc3cccc(F)c3)n2)c(C)c1Br,inactive: -13.2%,
CCOc1ccc(NS(=O)(=O)c2ccc3[nH]cc(C(=O)NCCOC)c(=O)c3c2)cc1,inactive: -12%,
CN(C)CCN(Cc1ccccc1)S(=O)(=O)c1ccc(-c2cc(C(F)(F)F)on2)s1,inactive: -35.9%,
CN(C)CCNC(=O)CCCn1c(=O)c2cccn2c2ccccc21,inactive: -5.59%,
COc1ccc(CCn2c(=O)[nH]c3cc(C(=O)N4CCN(c5ccccc5)CC4)ccc3c2=O)cc1OC,inactive: -31.4%,

SMILES,"activity change, positive = activation",Potency
Cc1ccc(NC(=O)/C(C#N)=C/c2cc(C)n(-c3ccc(Br)cc3)c2C)cc1C,inactive: -85.3%,
COCCNC(=O)CCCN1C(=O)CCn2nc(-c3cccn3C)cc21,inactive: 6.87%,
Cc1ccc(CCNC(=O)c2ccc(CS(=O)(=O)c3ccc(Cl)cc3)o2)cc1,inactive: -2.77%,
CCN1C(=O)C2(c3ccccc31)c1c(oc3ccc(C)cc3c1=O)C(=O)N2CCCOC(C)C (stereo unspecified),inactive: -13.4%,
Cc1cc2ccccc2n1CCNC(=O)c1ccc(F)cc1,inactive: -17.2%,
Fc1ccc(-c2cn3cc(Cc4ccccc4Cl)sc3n2)cc1,inactive: -11.5%,
Cc1cc(O)c(C(c2ccc(Cl)cc2)N2CCN(c3ccccc3)CC2)c(=O)n1Cc1ccco1 (stereo unspecified),inactive: -0.795%,
CC1=C(c2ccc(C)cc2)S(=O)(=O)N(Cc2ccc(C(=O)Nc3ccccc3C)cc2)C1=O,inactive: -38.6%,
COc1ccc(NC(=O)Cn2c(=O)oc3cc(S(=O)(=O)N4CCCCC4C)ccc32)cc1 (stereo unspecified),inactive: -24.1%,
O=C(c1ccccc1F)N1CCC(c2nc3c(nnn3Cc3cccc(F)c3)c(=O)[nH]2)CC1,inactive: -11.4%,
Cc1oc(-c2ccc(C(=O)NC(C)c3ccccc3)cc2)nc1CS(=O)(=O)c1ccccc1 (stereo unspecified),inactive: -6.2%,
COC(=O)c1ccccc1NC(=O)CCCN1C(=O)C(c2ccccc2)Oc2cccnc21 (stereo unspecified),inactive: -22.3%,
Cc1nc2ccccc2n1CCc1nc2c3ccccc3nc(SCC(=O)Nc3cccc(C(F)(F)F)c3)n2n1,inactive: -23%,
CCc1ccc2ncc(S(=O)(=O)c3ccc(Cl)cc3)c(N3CCN(CC)CC3)c2c1,inactive: -27.8%,
COc1ccc(Br)cc1Cn1nnc(C(=O)Nc2ccc(C)cc2C)c1N,inactive: -33.8%,
CCCCOc1ccc(C(=O)N2CC(=O)Nc3ccc(Br)cc3C2c2ccc(F)cc2)cc1 (stereo unspecified),inactive: -20%,
Cc1cc(C)nc(NS(=O)(=O)c2ccc(NC(=O)c3ccccc3O)cc2)n1,inactive: -20%,
COc1ccc2c(Sc3ccccc3)c(C(=O)NCC(C)c3ccccc3)[nH]c2c1 (stereo unspecified),inactive: 13.6%,
Cc1cc(C)cc(-n2c(SCC(=O)N3CCCC3)nc3c([nH]c4ccccc43)c2=O)c1,inactive: -6.7%,
O=C(CCC1N=C2c3ccccc3N=C(SCc3ccccc3Cl)N2C1=O)NCCc1ccccc1 (stereo unspecified),inactive: 10.9%,
Cn1c(=O)n(-c2ccc3c(c2)OCO3)c2nc(-c3ccc(Cl)cc3)nc(C(N)=O)c21,inactive: -12.3%,
Cc1ccccc1NC(=O)CSc1nc(-c2ccc(F)cc2)nc2c1Cc1ccccc1O2,inactive: 17.6%,
CC1=C(C(=O)Nc2cccnc2)C(c2ccccc2)n2nc(SCc3ccccc3)nc2N1 (stereo unspecified),inactive: -8.2%,

SMILES,"activity change, positive = activation",Potency
O=C(Cn1nc(-c2ccccc2)c2cnc3ccccc3c21)Nc1ccccc1,inactive: -12.2%,
Cc1ccc(C)c(NC(=O)CN2C(=O)C3(SCC(=O)N3c3ccc(C)c(C)c3)c3ccccc32)c1 (stereo unspecified),inactive: -20.6%,
CCC(=O)N1CCc2cc(CNS(=O)(=O)c3c(C)cc(C)cc3C)ccc21,inactive: -25.1%,
Cc1ccc(Cn2nnc3sc4c(c3c2=O)CCC(C)C4)cc1 (stereo unspecified),inactive: -14.6%,
CCCCOc1ccc(C(=O)Nc2ccc(S(=O)(=O)Nc3nc(C)cc(C)n3)cc2)cc1,inactive: -39%,
CC1CCc2nc3ncn(Cc4ccc(Cl)cc4)c(=O)c3cc2C1 (stereo unspecified),,active: 3.16 µM
Cc1nnc(NCc2ccc(Cl)cc2)c2c1nnn2Cc1ccc(F)cc1,inactive: 8.28%,
Cc1ccc2nc(-c3ccc(Cl)c(NC(=O)c4ccc5c(c4)OCCO5)c3)oc2c1,inactive: 21.5%,
COC(=O)c1ccccc1NC(=O)c1cc(-c2ccc(Cl)cc2)on1,inactive: -1.17%,
CCCCCCNc1nc2c(c(=O)n(C)c(=O)n2C)n1Cc1cccc(C)c1,inactive: -22.9%,
COCCCNC(=O)c1ccc(Cn2c(=O)c3ccccc3n(CC(=O)Nc3c(C)cccc3C)c2=O)cc1,inactive: -8.28%,
CCOc1cc(C(=O)Nc2ccc3nc(Nc4cccc(Cl)c4)cc(C)c3c2)cc(OCC)c1OCC,inactive: -2.57%,
Cc1nnc(SCc2cc(=O)n3cccc(C)c3n2)s1,inactive: 6.54%,
Cc1nn2c(C)c(C(=O)N3CCN(c4ccccc4F)CC3)cnc2c1-c1ccc(F)cc1,inactive: 1.53%,
Cc1cccc(CCNC(=O)C2CCC(CNS(=O)(=O)c3ccccc3)CC2)c1 (stereo unspecified),inactive: -0.788%,
COc1cccc(-c2nc(CS(=O)(=O)CC(=O)NCCc3ccc(OC)cc3OC)c(C)o2)c1,inactive: -20.6%,
CCCC(CCC)C(=O)Nc1cccc(-c2nc3cccnc3s2)c1C,inactive: -17.4%,
N#Cc1ccccc1Cn1c(=O)n(CCCC(=O)NCc2ccccc2Cl)c(=O)c2ccccc21,inactive: -8.31%,
O=C(Nc1ccc(F)c(Cl)c1)C1CCN(C(=O)c2ccc(F)cc2)CC1,inactive: 3.6%,
CNS(=O)(=O)Cc1ccc2[nH]cc(CCN(C)C)c2c1,inactive,
CCOC(=O)c1ccc(NC(=O)c2cnn(-c3ccc(C)cc3C)c2C2CCN(C(=O)OC(C)(C)C)CC2)cc1,inactive: 7.01%,
COc1ccc(NC(=O)C2CCN(S(=O)(=O)c3ccc4[nH]c(=O)ccc4c3)CC2)cc1Cl,inactive: -17.3%,
